# Among all 420,000 compounds or so, about 64,000 (15%) were called active. Inconclusive means that the source gave no clear call. Such entries were picked first, then a sample of the others. Calls follow the shape of the dose curve; as a rule, active = well fitted inhibition curve with a large enough effect; inconclusive = small, poorly fitted or top-dose-only effect; inactive = flat fitted curve, though single readings scatter. Potencies of inconclusive entries are left out as doubtful fits.
# Test: qHTS for Inhibitors of human tyrosyl-DNA phosphodiesterase 1 (TDP1): qHTS in cells in absence of CPT; also: nearly all actives have a fitted effect of over 55% in size
# Settings: DT40 Tdp1-/- hTDP1 cells, no CPT, ATP luminescence, 48 h; activity change, negative = growth inhibition: at 46.2 µM (top of the series) unless noted
# Procedure, shortened: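 No-CPT arm: Tdp1-/-;hTDP1 DT40 cells (400/well) plus compounds, incubated ≥48 hr at 37 °C. Readout CellTiter-Glo luminescence.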
# % is scaled to controls: 0 for no effect and ±100 for the full control effect; potency is read from the fitted curve at half-maximal effect; tags tell the direction and shape of the fitted curve.
SMILES,Potency,"activity change, negative = growth inhibition"
CC(NC(=O)c1cc(S(=O)(=O)N2CCOCC2)ccc1F)c1ccc(-n2ccnc2)cc1 (stereo not given),inactive,–
O=C(COC(=O)C1(c2ccc(F)cc2)CCCC1)N1CCNC1=O,inactive,–
Cc1ccccc1Cn1c(CN2CCc3ccccc3C2)nc2c1c(=O)n(C)c(=O)n2C,active: 20.6 µM,–
CCN(Cc1ccccc1)c1nc2c(S(=O)(=O)c3ccccc3)nnn2c2ccc(Cl)cc12,"inconclusive [inhibitor, single point]",–
O=C(c1cccc(OC2CCN(Cc3ccc(F)cc3Cl)CC2)c1)N1CCCC1,"inconclusive [inhibitor, single point]",–
O=C(OC1CC2CC1[C@H]1CCCCN1C2=O)N1CCC(c2ccccc2)CC1 (stereo not given in full),active: 16.4 µM,–
O=c1/c(=C\c2ccc(O)cc2)sc2nc(-c3ccccc3)c(-c3ccccc3)n12,"inconclusive [inhibitor, partial curve]",–
COc1ccccc1OCC(=O)NCc1n[nH]c(=O)c2ccccc12,"inconclusive [inhibitor, single point]",–
CCCC(=O)NCCc1nc2ccccc2n1CC(=O)c1ccccc1,inactive,–
COc1ccc(-c2csc(C(NC(C)=O)c3cccc(OC)c3)n2)cc1 (stereo not given),"inconclusive [inhibitor, single point]",–
COc1ccccc1N(C)S(=O)(=O)c1ccc(C(=O)Nc2ccc3nc(C)sc3c2)cc1,"inconclusive [inhibitor, single point]",–
Cc1cc(-c2ccccc2)cc(-c2ccccc2)[n+]1C,active: 8.2 µM,–
COc1ccc(N2CCN(C(=O)c3oc4ccccc4c3NC(=O)CCc3cc(OC)no3)CC2)cc1,inactive,–
Cc1nn(C)c(C(=O)N2CCc3ccccc32)c1Br,"inconclusive [inhibitor, partial curve]",–
Cc1ccc(NCc2n[nH]c(=S)n2-c2ccccc2)c(C)c1,inactive,–
C[C@@H]1CN([C@H](C)CO)C(=O)Cc2cc(NC(=O)Cn3cnnn3)ccc2O[C@@H]1CN(C)Cc1ccc(Cl)c(Cl)c1,"inconclusive [inhibitor, single point]",–
O=C(NCC(c1cccs1)S(=O)(=O)c1cccs1)c1cccc(F)c1 (stereo not given),active: 18.4 µM,–
CCOC(=O)C(=CNc1nc(-c2ccccc2)c(C(=O)Nc2ccc(-c3ccccc3)cc2)s1)C(=O)OCC,"inconclusive [inhibitor, partial curve, poor fit]",–
NC(=S)NN=C1CCCCCCCC1,"inconclusive [inhibitor, full curve, poor fit]",–
CCOC(=O)c1c(C)oc2ccc(OCC(=O)C(C)(C)C)cc12,"inconclusive [inhibitor, partial curve, poor fit]",–
CCOc1ccc(S(=O)(=O)N2CCCC(C(=O)NCc3cccnc3)C2)cc1C (stereo not given),active: 25.9 µM,–
COc1ccccc1C(=O)N[C@@H]1c2ccccc2C2(CCN(C(=O)c3csnn3)CC2)[C@H]1OC,inactive,–
Cn1c(CNC(=O)c2ccccc2)nnc1SCC(=O)Nc1nccs1,"inconclusive [inhibitor, single point]",–

SMILES,Potency,"activity change, negative = growth inhibition"
COc1ccccc1-c1ccnc(-n2ncc(C(=O)NC(c3cccnc3)C(F)(F)F)c2C)n1 (stereo not given),"inconclusive [inhibitor, single point]",–
Nc1nnc(-c2cc3ccccc3oc2=O)s1,"inconclusive [inhibitor, partial curve]",–
CCSc1nnc(Nc2ccc(C)cc2)s1,inactive,–
CCC(=O)Nc1ccc(Nc2nc(Cl)nc(Nc3ccc(NC(=O)CC)cc3)n2)cc1,"inconclusive [inhibitor, partial curve]",–
COc1ccc(NC(=O)CSc2ncnc3c2sc2ccccc23)c(OC)c1,"inconclusive [inhibitor, single point]",–
CC(C)N(CC(=O)Nc1ccc(Cl)cc1C(F)(F)F)C(=O)CCl,active: 6.51 µM,–
Cc1ccc(NC(=O)c2noc3c2CC(C(C)(C)C)CC3)cc1 (stereo not given),active: 23.1 µM,–
COc1ccc(/C=C2/C(=O)N(CC3CCCO3)C(=S)N2C)c(OC)c1 (stereo not given),–,inconclusive: -37.4% [inhibitor]
COc1ccc2cc(C(=O)C3CCCN(Cc4cccc(C)n4)C3)ccc2c1 (stereo not given),active: 8.2 µM,–
CCCc1nc(SCC(=O)Nc2ccc(S(=O)(=O)N(C)C)cc2)c2ccccc2n1,"inconclusive [inhibitor, partial curve]",–
Cc1cc(C)c(OCCOCCN2CCN(C)CC2)c(Cl)c1,"inconclusive [inhibitor, single point]",–
CC(C)(C)n1nnnc1C(c1ccc(C#N)cc1)N1CCCC2(CCCCC2)C1 (stereo not given),active: 23.1 µM,–
Cc1ccc2[nH]c3c(c2c1)CCc1cn[nH]c1-3,active: 23.1 µM,–
COc1cc(NS(=O)(=O)c2ccc(NC(=S)NC(=O)/C=C/c3ccc(F)cc3)cc2)ncn1,inactive,–
O=C(c1ccccc1)C1CCc2occc2C1=O (stereo not given),–,inconclusive: -31.7% [inhibitor]
COc1ccc(-c2nc3ccccc3n3c(-c4ccccc4)c4c(=O)n(C)c(=O)n(C)c4c23)cc1OC,"inconclusive [inhibitor, single point]",–
CCN(CC)S(=O)(=O)c1ccc(Cl)c(NC(=O)COC(=O)c2cccn2C)c1,"inconclusive [inhibitor, single point]",–
COc1cc(CN2C[C@@H](CO)O[C@@H](n3cnc4c(N5CCCC5)ncnc43)C2)cc(OC)c1OC,inactive,–
Cc1ccc(C2=NS(=O)(=O)N(C)C(C(=O)NCc3ccccn3)=C2)cc1,"inconclusive [inhibitor, single point]",–
O=c1oc2c3c(ccc2c2ccccc12)OCN(Cc1ccc(Cl)cc1)C3,"inconclusive [inhibitor, single point]",–
OC1(c2ccc3c(c2)OCO3)CCN(Cc2ccc(F)cc2)CC1,inactive,–
Cc1ccc(-c2cc(C(=O)N/N=C\c3cnn(C)c3C)c3ccccc3n2)cc1C,active: 10.3 µM,–
